Reference: publication PMC8321701
These are yes or no findings as the source states them, for the method shown. Some results given as binding are weak or reduced against the parent protein; the word gives no strength. For some assays here: Where a sequence is shown, tags or fusion partners need not be part of it. One block for each binder: values may come before it.

The chains behind the UniProt entries cited, without tags or fusion partners. Where a name states a change or a piece, a line headed by the entry shows the natural chain unless it says otherwise.
UniProt P62745: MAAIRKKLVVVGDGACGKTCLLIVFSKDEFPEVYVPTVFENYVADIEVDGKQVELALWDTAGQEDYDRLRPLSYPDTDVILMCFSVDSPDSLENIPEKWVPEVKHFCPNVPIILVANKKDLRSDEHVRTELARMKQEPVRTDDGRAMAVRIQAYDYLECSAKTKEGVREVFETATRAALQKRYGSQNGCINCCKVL

Assays:
[1] = biological target: biotinylated RhoB (T19N), dominant negative mutant (human) (UniProt P62745); assay: AlphaScreen or HTRF; high-throughput screen: biotin-tagged RhoB bait (WT, Q63L or T19N) with each FLAG-GST-tagged protein of the 4,212 human protein array; streptavidin donor beads, anti-DYKDDDDK antibody and protein A acceptor beads; 100 mM Tris-HCl pH 8.0, 0.01% Tween 20, 1 mg/ml BSA; 25°C, 1 h; wheat cell-free translation products
[2] = biological target: biotinylated RhoB (wild-type) (human) (UniProt P62745); assay: as above
[3] = biological target: biotinylated RhoB (Q63L), constitutively active mutant (human) (UniProt P62745); assay: as above
[4] = biological target: FLAG-tagged RhoB (Q63L) (human) (UniProt P62745); assay: AlphaScreen or HTRF; as the in vitro binding assay, protein mixtures incubated with PHT-7.3 (CNKSR1 inhibitor) for 1 h
[5] = biological target: FLAG-tagged RhoB (Q63L) (human) (UniProt P62745); assay: AlphaScreen or HTRF; as the in vitro binding assay, protein mixtures incubated with di-C8:0-PI(4,5)P2 for 1 h
[6] = biological target: FLAG-tagged RhoB (Q63L) (human) (UniProt P62745); assay: AlphaScreen or HTRF; in vitro binding assay of a biotinylated and a FLAG-tagged protein, both synthesized by wheat germ extracts; 100 mM Tris-HCl pH 7.5, 0.01% Tween 20, 1 mg/ml BSA, anti-FLAG antibody, streptavidin donor and anti-IgG acceptor beads; room temperature, 1 h; threshold of interaction 10 times the signal with DHFR
[7] = biological target: FLAG-tagged RhoB (wild-type) (human) (UniProt P62745); assay: as above
[8] = biological target: FLAG-tagged RhoB (T19N) (human) (UniProt P62745); assay: as above

binding [1]: no binding
binding [2]: no binding
binding [3]: binds
B1: FLAG-GST-tagged CNKSR1 of the 4,212 human protein array (protein, UniProt Q969H4 1-720)
chain: MEPVETWTPGKVATWLRGLDDSLQDYPFEDWQLPGKNLLQLCPQSLEALAVRSLGHQELILGGVEQLQALSSRLQTENLQSLTEGLLGATHDFQSIVQGCLGDCAKTPIDVLCAAVELLHEADALLFWLSRYLFSHLNDFSACQEIRDLLEELSQVLHEDGPAAEKEGTVLRICSHVAGICHNILVCCPKELLEQKAVLEQVQLDSPLGLEIHTTSNCQHFVSQVDTQVPTDSRLQIQPGDEVVQINEQVVVREERDMVGWPRKNMVRELLREPAGLSLVLKKIPIPETPPQTPPQVLDSPHQRSPSLSLAPLSPRAPSEDVFAFDLSSNPSPGPSPAWTDSASLGPEPLPIPPEPPAILPAGVAGTPGLPESPDKSPVGRKKSKGLATRLSRRRVSCRELGRPDCDGWLLLRKAPGGFMGPRWRRRWFVLKGHTLYWYRQPQDEKAEGLINVSNYSLESGHDQKKKYVFQLTHDVYKPFIFAADTLTDLSMWVRHLITCISKYQSPGRAPPPREEDCYSETEAEDPDDEAGSHSASPSPAQAGSPLHGDTSPAATPTQRSPRTSFGSLTDSSEEALEGMVRGLRQGGVSLLGQPQPLTQEQWRSSFMRRNRDPQLNERVHRVRALQSTLKAKLQELQVLEEVLGDPELTGEKFRQWKEQNRELYSEGLGAWGVAQAEGSSHILTSDSTEQSPHSLPSDPEEHSHLCPLTSESSLRPPDL

binding [4]: binds
binding [5]: binds
binding [6]: binds
binding [7]: no binding
binding [8]: no binding
B2: biotinylated CNKSR1 (wild-type) (protein, UniProt Q969H4 1-720)
chain: B1 chain
modifications: biotinylated
